pIC50: −log10 of the molar value.
These compounds were tested against CtermHisTag-mEGFR Triple Mutant (R797S, L858R, T790M) (Homo sapiens, UniProt P00533, C797S/L858R/T790M) (assay: TR-FRET probe displacement, EGFR triple mutant). Settings: 1.25 nM EGFR, 100 nM probe, 30 mins room temperature.
A pIC50 greater than 7.70 was found for `C#Cc1cc(=O)n(-c2ccc(OC)cc2OC)c2nc(Nc3ccc(N(C)CCN(C)C)cc3)ncc12` [Example 86, 8-(2,4-Dimethoxyphenyl)-2-[(4-{[2-(dimethylamino)ethyl](methyl)amino}phenyl)amino]-5-ethynylpyrido[2,3-d]pyrimidin-7-one] in this work.
A pIC50 of 7.00 to 7.70 was found for `C#Cc1cc(=O)n(C)c2nc(Nc3ccc(N4CCN(C)CC4)cc3OC)ncc12` [Example 49, 5-Ethynyl-2-{[2-methoxy-4-(4-methylpiperazin-1-yl)phenyl]amino}-8-methylpyrido[2,3-d]pyrimidin-7-one] in this work.
A pIC50 of 7.00 to 7.70 was found for `C#Cc1c(NC(C)=O)c(=O)n(-c2ccccc2)c2nc(Nc3ccccc3OC)ncc12` [Example 143, N-[5-ethynyl-2-[(2-methoxyphenyl)amino]-7-oxo-8-phenylpyrido[2,3-d]pyrimidin-6-yl]acetamide] in this work.
A pIC50 of 6.00 to 7.00 was found for `C#Cc1cc(=O)n(-c2ccc([N+](=O)[O-])cc2)c2nc(Nc3ccccc3OC)ncc12` [Example 60, 5-Ethynyl-2-((2-methoxyphenyl)amino)-8-(4-nitrophenyl)pyrido[2,3-d]pyrimidin-7(8H)-one] in this work.
A pIC50 greater than 7.70 was found for `C#Cc1cc(=O)n2c3nc(ncc13)Nc1ccc(N3CCN(C)CC3)c(c1)OCCOCC2` [Example 232, 1^5-Ethynyl-3^4-(4-Methylpiperazin-1-yl)-1^7,1^8-dihydro-4,7-dioxa-2-aza-1(2,8)-pyrido[2,3-d]pyrimidina-3(1,3)-benzenacyclononaphan-1^7-one] in this work.
A pIC50 of 7.00 to 7.70 was found for `C#Cc1cc(=O)n2c3nc(ncc13)Nc1cccc(c1)COC/C=C\C2` [Example 195, (Z)-1^5-ethynyl-1^7,1^8-dihydro-5-oxa-2-aza-1(2,8)-pyrido[2,3-d]pyrimidina-3(1,3)-benzenacyclononaphan-7-en-1^7-one] in this work.
A pIC50 greater than 7.70 was found for `C#Cc1c(-c2ccccc2Cl)c(=O)n(C)c2nc(Nc3ccc(N4CCN(C)CC4)cc3)ncc12` [Example 128, 6-(2-chlorophenyl)-5-ethynyl-8-methyl-2-{[4-(4-methylpiperazin-1-yl)phenyl]amino}pyrido[2,3-d]pyrimidin-7-one] in this work.
A pIC50 of 6.00 to 7.00 was found for `C#Cc1cc(=O)n(-c2ccccc2)c2nc(Nc3ccccc3)ncc12` [Example 5] in this work.
A pIC50 greater than 7.70 was found for `C#Cc1cc(=O)n(-c2ccccc2)c2nc(Nc3ccc(C4CCNCC4)cc3)ncc12` [Example 22, 5-Ethynyl-8-phenyl-2-{[4-(piperidin-4-yl)phenyl]amino}pyrido[2,3-d]pyrimidin-7-one] in this work.
A pIC50 of 7.00 to 7.70 was found for `C#Cc1c(C)c(=O)n(Cc2ncco2)c2nc(Nc3ccc(N4CCN(C)CC4)cc3)ncc12` [Example 114, 5-ethynyl-6-methyl-2-{[4-(4-methylpiperazin-1-yl)phenyl]amino}-8-(1,3-oxazol-2-ylmethyl)pyrido[2,3-d]pyrimidin-7-one] in this work.
A pIC50 of 7.00 to 7.70 was found for `C#Cc1cc(=O)n(C)c2nc(Nc3ccc(N4CCN(C)CC4)c(OCCCC4CCCC4)c3)ncc12` [Example 212, 2-((3-(3-Cyclopentylpropoxy)-4-(4-methylpiperazin-1-yl)phenyl)amino)-5-ethynyl-8-methylpyrido[2,3-d]pyrimidin-7(8H)-one] in this work.
A pIC50 of 6.00 to 7.00 was found for `C#Cc1cc(=O)n(C2CCN(C)C2)c2nc(Nc3ccc(N4CCN(C)CC4)cc3)ncc12` (centres unmarked) [Example 107, 5-ethynyl-2-{[4-(4-methylpiperazin-1-yl)phenyl]amino}-8-(1-methylpyrrolidin-3-yl)pyrido[2,3-d]pyrimidin-7-one] in this work.
A pIC50 greater than 7.70 was found for `C#Cc1cc(=O)n2c3nc(ncc13)Nc1ccc(N3CCN(C)CC3)c(c1)OC/C=C\C2` [Example 188, (Z)-1^5-ethynyl-3^4-(4-methylpiperazin-1-yl)-1^7,1^8-dihydro-4-oxa-2-aza-1(2,8)-pyrido[2,3-d]pyrimidina-3(1,3)-benzenacyclooctaphan-6-en-1^7-one] in this work.
A pIC50 greater than 7.70 was found for `C#Cc1nc(=O)n(-c2ccccc2)c2nc(Nc3ccccc3OC)ncc12` [Example 4, 4-Ethynyl-7-[(2-methoxyphenyl)amino]-1-phenylpyrimido[4,5-d][1,3]diazin-2-one] in this work.
A pIC50 of 6.00 to 7.00 was found for `C#Cc1cc(=O)n(-c2ccccc2)c2nc(Nc3ccccc3CO)ncc12` [Example 41, 5-Ethynyl-2-{[2-(hydroxymethyl)phenyl]amino}-8-phenylpyrido[2,3-d]pyrimidin-7-one] in this work.
A pIC50 of 7.00 to 7.70 was found for `C#Cc1c(C)c(=O)n([C@H]2CC[C@@H](NC(C)=O)CC2)c2nc(Nc3ccc(N4CCN(C)CC4)cc3)ncc12` [Example 103, N-[(1s,4s)-4-(5-ethynyl-6-methyl-2-{[4-(4-methylpiperazin-1-yl)phenyl]amino}-7-oxopyrido[2,3-d]pyrimidin-8-yl)cyclohexyl]acetamide] in this work.
A pIC50 of 6.00 to 7.00 was found for `C#Cc1cc(=O)n(C2CCCC2)c2nc(Nc3cccc(N(C)[C@H]4CC[C@H](CS(C)(=O)=O)CC4)c3)ncc12` [Example 206] in this work.
A pIC50 greater than 7.70 was found for `C#Cc1cc(=O)n(C)c2nc(Nc3ccc(N4CCN(C)CC4)c(OCCc4ccnn4C)c3)ncc12` [Example 220, 5-Ethynyl-8-methyl-2-((3-(2-(1-methyl-1H-pyrazol-5-yl)ethoxy)-4-(4-methylpiperazin-1-yl)phenyl)amino)pyrido[2,3-d]pyrimidin-7(8H)-one] in this work.
A pIC50 of 4.30 to 6.00 was found for `C=Cc1c(Cc2ccccc2)c(=O)n(C)c2nc(Nc3ccc(N(C)CCN(C)C)cc3)ncc12` [Example 166, 6-benzyl-2-[(4-{[2-(dimethylamino)ethyl](methyl)amino}phenyl)amino]-5-ethenyl-8-methylpyrido[2,3-d]pyrimidin-7-one] in this work.
A pIC50 greater than 7.70 was found for `C#Cc1cc(=O)n(-c2ccccc2)c2nc(Nc3ccc(C4CCN(C)CC4)cc3)ncc12` [Example 21, 5-Ethynyl-2-{[4-(1-methylpiperidin-4-yl)phenyl]amino}-8-phenylpyrido[2,3-d]pyrimidin-7-one] in this work.
A pIC50 of 4.30 to 6.00 was found for `C=Cc1c(-c2c(Cl)cccc2Cl)c(=O)n(C)c2nc(Nc3ccccc3OC)ncc12` [Example 163, 6-(2,6-dichlorophenyl)-5-ethenyl-2-[(2-methoxyphenyl)amino]-8-methylpyrido[2,3-]pyrimidin-7-one] in this work.
A pIC50 of 6.00 to 7.00 was found for `C#Cc1cc(=O)n(C[C@@H]2CCC(=O)N2)c2nc(Nc3ccc(N4CCN(C)CC4)cc3)ncc12` [Example 71, (S)-5-Ethynyl-2-((4-(4-methylpiperazin-1-yl)phenyl)amino)-8-((5-oxopyrrolidin-2-yl)methyl)pyrido[2,3-d]pyrimidin-7(8H)-one] in this work.
A pIC50 of 7.00 to 7.70 was found for `C#Cc1cc(=O)n(C(C)C)c2nc(Nc3ccc(N4CCN(C)CC4)cc3)ncc12` [Example 76, 5-Ethynyl-8-isopropyl-2-{[4-(4-methylpiperazin-1-yl)phenyl]amino}pyrido[2,3-d]pyrimidin-7-one] in this work.
A pIC50 greater than 7.70 was found for `C#Cc1cc(=O)n(-c2ccccc2)c2nc(Nc3ccc(N4CCOCC4)cc3OC)ncc12` [Example 35, 5-Ethynyl-2-((2-methoxy-4-morpholinophenyl)amino)-8-phenylpyrido[2,3-d]pyrimidin-7(8H)-one] in this work.
A pIC50 greater than 7.70 was found for `C#Cc1c(-c2cc(OC)ccc2Cl)c(=O)n(C)c2nc(Nc3ccc(N(C)CCN(C)C)cc3)ncc12` [Example 136, 6-(2-chloro-5-methoxyphenyl)-2-[(4-{[2-(dimethylamino)ethyl](methyl)amino}phenyl)amino]-5-ethynyl-8-methylpyrido[2,3-d]pyrimidin-7-one] in this work.
A pIC50 of 6.00 to 7.00 was found for `C#Cc1cc(=O)n(C)c2nc(Nc3ccc(N4CCN(C)CC4)c(S(=O)(=O)NCC4CCCC4)c3)ncc12` [Example 218] in this work.
A pIC50 of 7.00 to 7.70 was found for `C#Cc1cc(=O)n(-c2ccc(NS(C)(=O)=O)cc2)c2nc(Nc3ccccc3OC)ncc12` [Example 63, N-(4-(5-Ethynyl-2-((2-methoxyphenyl)amino)-7-oxopyrido[2,3-d]pyrimidin-7(8H)-yl)phenyl)methanesulfonamide] in this work.
A pIC50 of 7.00 to 7.70 was found for `C#Cc1cc(=O)n2c3nc(ncc13)Nc1ccc(N3CCN(C)CC3)c(c1)CNC(=O)CCC2` [Example 237, 1^5-Ethynyl-3^4-(4-methylpiperazin-1-yl)-1^7,1^8-dihydro-2,5-diaza-1(2,8)-pyrido[2,3-d]pyrimidina-3(1,3)-benzenacyclononaphane-1^7,6-dione] in this work.
A pIC50 of 6.00 to 7.00 was found for `C#Cc1cc(=O)n(C2CCCC2)c2nc(Nc3cccc(N(C)[C@H]4C[C@H](CS(C)(=O)=O)C4)c3)ncc12` [Example 205] in this work.
A pIC50 greater than 7.70 was found for `C#Cc1cc(=O)n([C@H]2CC[C@@H](CO)CC2)c2nc(Nc3ccc(N(C)CCN(C)C)cc3)ncc12` [Example 80, 2-[(4-{[2-(Dimethylamino)ethyl](methyl)amino}phenyl)amino]-5-ethynyl-8-[(1s,4s)-4-(hydroxymethyl)cyclohexyl]pyrido[2,3-d]pyrimidin-7-one] in this work.
A pIC50 of 7.00 to 7.70 was found for `C#Cc1cc(=O)n(-c2cccc(NS(C)(=O)=O)c2)c2nc(Nc3ccccc3OC)ncc12` [Example 57, N-(3-(5-Ethynyl-2-((2-methoxyphenyl)amino)-7-oxopyrido[2,3-d]pyrimidin-8(7H)-yl)phenyl)methanesulfonamide] in this work.
A pIC50 of 7.00 to 7.70 was found for `C#Cc1c(C(=O)NC)c(=O)n(-c2ccccc2)c2nc(Nc3ccccc3OC)ncc12` [Example 141, 5-ethynyl-2-[(2-methoxyphenyl)amino]-N-methyl-7-oxo-8-phenylpyrido[2,3-d]pyrimidine-6-carboxamide] in this work.
A pIC50 of 7.00 to 7.70 was found for `C#Cc1cc(=O)n(-c2ccccc2)c2nc(Nc3ccc(N(C)C(=O)CCOC)cc3OC)ncc12` [Example 36, N-(4-((5-Ethynyl-7-oxo-8-phenyl-7,8-dihydropyrido[2,3-d]pyrimidin-2-yl)amino)-3-methoxyphenyl)-3-methoxy-N-methylpropanamide] in this work.
A pIC50 of 7.00 to 7.70 was found for `C#Cc1cc(=O)n(CC2CCCO2)c2nc(Nc3ccc(N4CCN(C)CC4)cc3)ncc12` (centres unmarked) [Example 72, 5-Ethynyl-2-((4-(4-methylpiperazin-1-yl)phenyl)amino)-8-((tetrahydrofuran-2-yl)methyl)pyrido[2,3-d]pyrimidin-7(8H)-one] in this work.
A pIC50 of 7.00 to 7.70 was found for `C#Cc1c(C)c(=O)n2c3nc(ncc13)Nc1cccc(c1)OCCCC2` [Example 191, 1^5-ethynyl-1^6-methyl-1^7,1^8-dihydro-4-oxa-2-aza-1(2,8)-pyrido[2,3-d]pyrimidina-3(1,3)-benzenacyclooctaphan-1^7-one] in this work.

Source: US20260137703A1, “2-AMINO-PYRIDO[2,3-D]PYRIMIDIN-7(8H)-ONE AND 7-AMINO-1-PYRIMIDO[4,5-D]PYRIMIDIN-2(1 H)-ONE DERIVATIVES AS EGFR INHIBITORS FOR THE TREATMENT OF CANCER” (Cancer Research Technology Limited, priority 2022, published 2026)
